Measurements from the supplement of paper PMC3724861.
This is one part of the list.

System: T1, Caupolican (Caup) homeodomain DNA-binding domain
T1 sequence: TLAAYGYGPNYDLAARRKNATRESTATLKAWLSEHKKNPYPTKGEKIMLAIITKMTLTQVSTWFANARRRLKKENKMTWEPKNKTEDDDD
Test: PBM E-score (8-mer, recovered from the published 9-mer minima) (E-score (dimensionless, -0.5 to 0.5)); Drosophila protein; higher = stronger relative binding preference, active = 0.31 or more
Outline: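 An enrichment score, with higher meaning stronger, expresses relative binding preference for each short DNA word. The protein used was Caup's homeodomain DNA-binding domain (residues 214-303), produced by in vitro transcription and translation and tested at 100 nM on custom-designed protein binding microarrays. The 8-mer values were recovered from published 9-mer scores, each equal to the lower of its two constituent 8-mer scores.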

PBM E-score, active:
CGTGTTAA ≥ 0.33, ATGTTTAA 0.367

PBM E-score, inactive:
ACTCGACG 0.1, CCTCGGAC -0.125, GCCTCCGC -0.247, GTCGCACA 0.00747, GCGCCAAA -0.211, CATATGGG -0.03, CGATGAAA -0.0122, AGTAAACG 0.0864, CAAATCAC -0.00324, CCGTTAAA 0.0231, AGTCCTTA -0.00086, CTCAGAAC 0.0358, CACAGCCG -0.0958, GCCAGGGA -0.243, ATCACAAA 0.124, AGCGTGGA -0.121, GGGGTAAC -0.00369, CGGTTCAA -0.15, GGAGCTCA -0.154, ACAGGCTC 0.0024, ATTGCTAG 0.0556, CGTGCCAC -0.136, GCTTTCAA -0.0115, GGCACACA 0.00306, CATCCGAG 0.0288, CGGCTACG -0.194, ACAAAGGG -0.0556, GAGTCTAA -0.0512, CGACAGAA 0.0952, AGAGAACG 0.0198, ATACTGTC 0.0971, AGGCGCGC -0.21, CTCCTGCA -0.135, AGAAGTCA 0.0275, AAGGGTTA 0.0113, AAATAATT 0.163, GCGCCCCC -0.316, CCGTCGAG -0.0945, ATTTTGCG 0.0398, CGGCGCAC -0.219, CCGAATGA 0.00755, AGCCTCAC -0.108, ACGGGGGG -0.314, AATATTCC 0.0785, ACCACCGT 0.0306, AATGAACC -0.0632, ATCTCCTC -0.082, CTACGCTC -0.105, AGTAGGGA -0.0548, GCTCTGTA 0.105, AGTAAAAA 0.147, CTATGAAG -0.0724, AAGGTGGC -0.102, GCGTGAAC -0.0106, CGTACGAG -0.0397, CGTTTGAA -0.0324, ATCGGGCG -0.115, CGATGAGC -0.0457, AATAGTAC 0.186, GATACGAA 0.129, ACAGTACG 0.0926, GACGCCGC -0.188, CAACAAAG 0.159, CCGCAATA 0.0192, ACTCTATC 0.0542, GGTGCTTA -0.121, ATACGTTC 0.0354, CCGTTTGC -0.172, GAGGACTC -0.122, AGATATTG 0.0643, AACTCCTA 0.00852, AAGCACTG 0.0317, GTACCTGA 0.158, TATAAGCA 0.0735, CTGTGGAC -0.0237, CCCCGGGC -0.32, GTAGTTCA 0.136, CAAGGCAC -0.068, AGAAGTTG -0.0169, AGTGGGGG -0.317, TAATGTGA 0.141, ATGGAGCC -0.097, CAATCCTC -0.0654, CGGCCATC -0.239, ACGAATCA 0.0895, AATATGCT 0.121, AACTGCAT 0.12, TGACGCAA -0.0112, GGCAGAGA -0.188, AATATAAG 0.113, CCAGCTTA -0.0387, AATACTGT 0.14, CACCGGCG -0.123, CCAAAGGA -0.0596, ACATCAAA 0.26, ATTTGAAA 0.105, ACAACCCT 0.145, ACCGTACG -0.00187, GGATCGAC -0.017, AGAATTTC -0.0921, ATCCGGTA 0.0596, ATCCGGAT 0.00243, ATGTCCAG 0.2, AGAGATGC 0.0307

PBM E-score, ≥ 0.297:
AACATCGA

PBM E-score, ≥ 0.0242:
AGATGCCT

PBM E-score, ≥ 0.0385:
ATGCGCAT

PBM E-score, ≥ 0.137:
CAAATCGA

PBM E-score, ≥ 0.153:
AACCTGAT

PBM E-score, ≥ -0.137:
ACCCGGCA
